Some of the results follow.

This assay concerns HSkMC (human skeletal muscle cells). Description: cytotoxicity call (relative viability < 0.9). Particulars: 10 µM.
In the case of `C[C@H](CO)N1C[C@H](C)[C@H](CN(C)C(=O)c2ccccc2)Oc2cc(C#CC3(O)CCCC3)ccc2S1(=O)=O`, the cytotoxicity call is “inactive”.
Then `Cc1nc(=O)[nH]c(C(=O)O)c1C`, with “inactive”.
The value for `C[C@@H]1CN([C@@H](C)CO)C(=O)c2cc(NC(=O)Nc3cccc4ccccc34)ccc2O[C@H]1CN(C)S(=O)(=O)c1cccs1` was “inactive”.
The value for `O=C(CSc1nnc(-c2ccccc2)n1C1CCCCC1)Nc1ccc(S(=O)(=O)Nc2ccccn2)cc1` was “inactive”; that for `COc1ccc(S(=O)(=O)N(C)C[C@H]2Oc3ccc(NC(=O)Nc4c(C)noc4C)cc3CC(=O)N([C@H](C)CO)C[C@H]2C)cc1` was “inactive”; that for `Cc1cc(C(=O)Nc2cccc3c2O[C@@H](CN(C)S(=O)(=O)c2ccccc2)[C@@H](C)CN([C@@H](C)CO)C3=O)n(C)n1` was “inactive”.
For the compound `CC(C)CC#Cc1cnc2c(c1)C(=O)N([C@@H](C)CO)C[C@@H](C)[C@@H](CN(C)C(=O)CN1CCOCC1)O2`, the cytotoxicity call is “inactive”.
Then `C=CCOC(=O)[C@@H]1[C@H]2C(=O)O[C@H](c3ccccc3)[C@H](c3ccccc3)N2[C@H](c2ccc(OCCOC(=O)[C@@H]3C[C@@H]4C(=O)N[C@@H](CCCC[N+](C)(C)C)C(=O)N4[C@@H]3c3cccc(OCCO)c3)cc2)[C@@]12C(=O)Nc1ccccc12`, with “inactive”; and `Cc1ccc(S(=O)(=O)N(C)C[C@H]2Oc3ncc(C#CC4(O)CCCC4)cc3C(=O)N([C@@H](C)CO)C[C@H]2C)cc1`, with “inactive”; and `Cc1ccc(O)cc1`, with “inactive”.
The value for `COc1ccc(S(=O)(=O)Nc2cccc3c2O[C@@H](CN(C)S(=O)(=O)c2ccccc2)[C@H](C)CN([C@H](C)CO)C3=O)cc1` was “inactive”; that for `CCOc1cc(CC(=O)NC(CC(C)C)c2ccccc2N2CCCCC2)ccc1C(=O)O` (stereo not given) was “inactive”; that for `C[C@H]1CCCCO[C@@H](CN(C)S(=O)(=O)c2ccccc2)[C@@H](C)CN([C@@H](C)CO)C(=O)c2cc(NC(=O)CCC(F)(F)F)ccc2O1` was “inactive”.
The value for `CCC(=O)Nc1ccc2c(c1)C(=O)N(C)C[C@@H](OC)[C@H](C)CN(Cc1ccc(-c3ccccn3)cc1)[C@H](C)CO2` was “inactive”; that for `CCC(=C(CC)c1ccc(O)cc1)c1ccc(O)cc1` was “inactive”.
As for `C[C@H](CO)N1C[C@H](C)[C@H](CN(C)CC2CCCCC2)Oc2ccc(NC(=O)Nc3ccc(F)cc3)cc2C1=O`, the cytotoxicity call was “inactive”.
The value for `C[C@H]1CN([C@@H](C)CO)S(=O)(=O)c2ccc(C#CC3(O)CCCC3)cc2O[C@@H]1CN(C)C(=O)Nc1cccc(F)c1` was “active”.
The value for `CN1CCN(C(=O)C[C@@H]2CC[C@@H](NC(=O)c3ccc4c(c3)OCO4)[C@H](CO)O2)CC1` was “inactive”; that for `C[C@@H]1CCCCO[C@@H](CN(C)C(=O)Nc2ccc(F)cc2)[C@H](C)CN([C@H](C)CO)C(=O)c2cc(NC(=O)CCCN(C)C)ccc2O1` was “inactive”; that for `C[C@@H]1CN([C@@H](C)CO)C(=O)c2cc(NS(=O)(=O)c3cccs3)ccc2O[C@@H](C)CCCCO[C@@H]1CN(C)Cc1ccc(C(F)(F)F)cc1` was “inactive”.
The value for `C[C@@H]1CN([C@@H](C)CO)C(=O)c2cc(C#Cc3cccc(F)c3)cnc2O[C@@H]1CN(C)C(=O)C1CCOCC1` was “inactive”; that for `C[C@H]1CN([C@@H](C)CO)C(=O)Cc2cc(NC(=O)Nc3ccc(C(F)(F)F)cc3)ccc2O[C@H]1CN(C)Cc1ccc(Cl)c(Cl)c1` was “active”; that for `Cc1noc(C)c1NC(=O)Nc1ccc2c(c1)CC(=O)N([C@H](C)CO)C[C@H](C)[C@H](CN(C)C(=O)NC(C)C)O2` was “inactive”.
For the compound `COc1ccc(NC(=O)Nc2ccc3c(c2)C(=O)N([C@@H](C)CO)C[C@@H](C)[C@H](CN(C)C(=O)NC2CCCCC2)OCCCC[C@@H](C)O3)cc1`, the cytotoxicity call was “inactive”.
Take `Cc1nc(N=Nc2cc(S(=O)(=O)O)c3cc([N+](=O)[O-])cc(S(=O)(=O)O)c3c2)c(COP(=O)(O)O)c(C=O)c1O`: the cytotoxicity call was “inactive”.
On to `O=C1O[C@@H](c2ccccc2)[C@@H](c2ccccc2)N2[C@@H](c3ccccc3OCCO)[C@]3(C(=O)Nc4ccc(C#CC5(O)CCCCCC5)cc43)[C@@H](C(=O)O)[C@H]12`, for which the cytotoxicity call is “inactive”.
Then `Cc1ccc(S(=O)(=O)N(C)C[C@@H]2Oc3ncc(C#CCC(C)C)cc3C(=O)N([C@H](C)CO)C[C@H]2C)cc1`, with “inactive”; and `O=C(C[C@@H]1C=C[C@H](NC(=O)C2CCC2)[C@@H](CO)O1)NCCCN1CCOCC1`, with “inactive”.
The value for `[N-]=[N+]=N[C@]1(CO)O[C@@H](n2ccc(N)nc2=O)[C@@H](O)[C@@H]1O` was “inactive”; that for `Cc1noc(C)c1S(=O)(=O)N(C)C[C@@H]1Oc2ccc(NC(=O)C3CCCCC3)cc2CC(=O)N([C@@H](C)CO)C[C@H]1C` was “inactive”; that for `C[C@H]1O[C@@H](O[C@H]2[C@@H](O)C[C@H](O[C@H]3[C@@H](O)C[C@H](O[C@H]4CC[C@@]5(C)[C@H](CC[C@@H]6[C@@H]5C[C@@H](O)[C@]5(C)[C@@H](C7=CC(=O)OC7)CC[C@]65O)C4)O[C@@H]3C)O[C@@H]2C)C[C@H](O)[C@@H]1O` was “active”.
For `O=C(C[C@@H]1C[C@@H]2c3cc(NC(=O)c4ccc5c(c4)OCO5)ccc3O[C@@H]2[C@H](CO)O1)NCc1cccnc1`, the cytotoxicity call is “inactive”.
Then `C[C@@H]1CCCCO[C@H](CN(C)S(=O)(=O)c2ccc(F)cc2)[C@@H](C)CN([C@@H](C)CO)C(=O)c2cc(NS(=O)(=O)c3ccc(Cl)cc3)ccc2O1`, with “inactive”; and `CC1C(=O)OC2CC34C5CC(C(C)(C)C)C36C(OC(=O)C6O)OC4(C(=O)O5)C21O` (stereo not given), with “inactive”.
The value for `COc1cccc(C#Cc2ccc3c(c2)O[C@@H](CN(C)S(=O)(=O)c2ccccc2F)[C@H](C)CN([C@H](C)CO)S3(=O)=O)c1` was “inactive”.
With `C[C@H](CO)N1C[C@H](C)[C@H](CN(C)C(=O)Nc2cccc3ccccc23)OCCCC[C@H](C)Oc2ccc(NS(=O)(=O)c3cn(C)cn3)cc2C1=O`, the cytotoxicity call is “inactive”.
`O=C1CO[C@@H](c2ccccc2)CN1`: the cytotoxicity call was “inactive”.
Then `COc1ccc(S(=O)(=O)Nc2ccc3c(c2)CC(=O)N([C@H](C)CO)C[C@@H](C)[C@H](CN(C)CC2CC2)O3)cc1`, with “inactive”; and `CC(C)C#Cc1ccc2c(c1)O[C@@H](CN(C)S(=O)(=O)c1cn(C)cn1)[C@H](C)CN([C@@H](C)CO)S2(=O)=O`, with “inactive”; and `COc1ccc(C#Cc2ccc([C@H]3[C@H](CO)N4CCCCN(S(=O)(=O)c5cn(C)cn5)C[C@@H]34)cc2)cc1`, with “inactive”.

Source of the values: the antibiotic and cytotoxicity screens of Wong et al. (2023).
